In PMC4336329 (PLoS ONE, 2015):
Hit rate of the full screen: of about 310,000 compounds, about 2,200 (0.71%) showed an effect of 50% or more. Effects have a minus sign here. Some of the results follow.

Biological target: human ether-à-go-go-related gene (hERG) potassium channel (human, UniProt Q12809)
Test: primary screen, population patch clamp on CHO cells stably expressing hERG

Chain of human ether-à-go-go-related gene (hERG) potassium channel (Q12809 whole entry, looked up): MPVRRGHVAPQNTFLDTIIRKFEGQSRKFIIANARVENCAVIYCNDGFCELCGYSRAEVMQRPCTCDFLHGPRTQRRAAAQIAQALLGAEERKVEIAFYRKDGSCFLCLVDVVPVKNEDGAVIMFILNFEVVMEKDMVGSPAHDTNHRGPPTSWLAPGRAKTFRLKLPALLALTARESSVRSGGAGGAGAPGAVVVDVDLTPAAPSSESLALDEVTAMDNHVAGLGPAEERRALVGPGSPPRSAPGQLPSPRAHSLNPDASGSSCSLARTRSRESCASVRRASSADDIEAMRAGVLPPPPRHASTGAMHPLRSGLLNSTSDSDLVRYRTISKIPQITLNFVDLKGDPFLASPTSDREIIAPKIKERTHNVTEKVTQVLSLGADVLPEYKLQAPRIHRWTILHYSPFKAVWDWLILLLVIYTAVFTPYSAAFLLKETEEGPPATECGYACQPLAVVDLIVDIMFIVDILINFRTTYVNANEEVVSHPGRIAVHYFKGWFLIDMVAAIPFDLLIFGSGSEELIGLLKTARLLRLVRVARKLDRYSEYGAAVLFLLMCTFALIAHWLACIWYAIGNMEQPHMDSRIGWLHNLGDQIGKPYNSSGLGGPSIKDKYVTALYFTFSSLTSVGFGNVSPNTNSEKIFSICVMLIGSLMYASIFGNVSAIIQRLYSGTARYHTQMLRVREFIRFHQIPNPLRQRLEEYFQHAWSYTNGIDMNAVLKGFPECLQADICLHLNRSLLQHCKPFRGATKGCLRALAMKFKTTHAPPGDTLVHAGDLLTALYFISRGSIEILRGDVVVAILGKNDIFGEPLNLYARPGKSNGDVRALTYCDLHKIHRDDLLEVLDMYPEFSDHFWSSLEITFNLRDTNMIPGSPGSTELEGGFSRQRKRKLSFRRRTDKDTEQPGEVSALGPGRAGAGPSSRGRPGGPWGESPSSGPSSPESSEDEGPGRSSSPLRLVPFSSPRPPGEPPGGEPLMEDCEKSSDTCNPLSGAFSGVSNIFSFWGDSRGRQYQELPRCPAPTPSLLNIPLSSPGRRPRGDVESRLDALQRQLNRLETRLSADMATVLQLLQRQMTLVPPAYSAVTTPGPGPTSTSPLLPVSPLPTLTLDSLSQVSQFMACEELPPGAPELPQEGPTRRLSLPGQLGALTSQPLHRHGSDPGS

Row | SMILES | hERG current change (%, negative = inhibition) at 1uM
1 | Cc1cccc(-n2c(SCC(N)=O)nc3c(c2=O)C2(CCCC2)Cc2ccccc2-3)c1 | -0.531%
2 | COCCCNC(=S)N/N=C/c1ccc(O)cc1O | 4.31%
3 | O=C(CCCOc1ccccc1)Nc1nncs1 | -1.99%
4 | Cn1c(=NC(=O)C2CC2)sc2cccc(F)c21 | 1.19%
5 | CCOC(=O)c1ccc2c(c1)[nH]c(=S)n2CC | 12.3%
6 | O=C(NCc1ccccc1)C1CCN(C(=O)NCc2ccccc2)CC1 | 18.8%
7 | CCOC(=O)c1sc(NC(=O)CN2C(=O)c3cccc4cccc(c34)C2=O)nc1C | 11.6%
8 | Cc1cc(/C=C2\SC(=O)N(CC(=O)Nc3ccccc3F)C2=O)c(C)n1C | 10.5%
9 | O=C(COC(=O)c1nc(Cl)ccc1Cl)c1ccc(Cl)s1 | 11.9%
10 | O=C(NCc1ccc(Cl)cc1)c1cc(=O)nc2sc(-c3ccccc3)nn12 | -10.3%
11 | O=C1c2ccccc2N2C(=O)c3ccccc3C2N1Cc1ccco1 (centres unmarked) | 8.1%
12 | CCn1ncc(Br)c1C(=O)Nc1cc([N+](=O)[O-])ccc1C | 9.28%
13 | O=C(O)c1ccc(NC(CSCc2ccccc2F)C(=O)O)c([N+](=O)[O-])c1 (centres unmarked) | 8.88%
14 | Cc1cc(C)nc(N/N=C/c2ccccc2OCC(=O)O)n1 | 13.9%
15 | Cc1ccc(OCC(=O)NNC(=O)CCc2ccccc2)cc1 | 3.57%
16 | Fc1ccc(Nc2nnns2)cc1 | 15.5%
17 | O=[N+]([O-])c1cccc(-c2nnc(-c3ccc4c(c3)OCO4)o2)c1 | 8.07%
18 | COc1ccc(-c2cc(-c3ccco3)[nH]c(=O)c2C#N)cc1OC | 13.5%
19 | Cc1ccccc1OCCC(=O)OCC(=O)N(C)c1c(N)n(Cc2ccccc2)c(=O)[nH]c1=O | 8.86%
20 | CCCN(CCC)CCCNC(=O)c1cc2cc3ccc(OC)cc3nc2o1 | -6.32%
21 | Cl.O=C(CCS(=O)(=O)c1ccccc1)N(CCCN1CCOCC1)c1nc2ccc(F)cc2s1 | -2.41%
22 | O=C(NCCC1=CCCCC1)C(=O)NCc1ccncc1 | 9.59%

Row | SMILES | hERG current change (%, negative = inhibition) at 1uM
23 | O=C(CSc1ccc(-c2ccccn2)nn1)NCc1ccc(F)cc1 | 9.07%
24 | O=C(O)CN1C(=O)SC(Nc2ccccc2)C1=O (centres unmarked) | 1.66%
25 | COc1ccc2oc(C(=O)OC(C)C(=O)NCc3ccccc3)c(C)c2c1 (centres unmarked) | 12.1%
26 | O=C(CSc1nnc(-c2ccc(Br)cc2)n1CCc1ccccc1)NC1CCS(=O)(=O)C1 (centres unmarked) | -60.7%
27 | Cc1ccc(C2=NS(=O)(=O)N(C)C(C(=O)N3CCCCC3)=C2)cc1 | 2.24%
28 | N#Cc1nc(-c2ccco2)oc1N1CCC(C(N)=O)CC1 | -0.374%
29 | Cc1c(C(=O)N2CCOCC2)c(S(=O)(=O)Nc2cccc(F)c2)c(C)n1C | -2.45%
30 | COCCSc1nnc(NC(=O)Cc2cccs2)s1 | 14.8%
31 | COc1ccc(N(CC(=O)Nc2cc(OC)ccc2OC)S(C)(=O)=O)cc1 | 10.5%
32 | CCOc1ccc(NC(=O)Cn2nnc(-c3ccccc3NC(=O)CC)n2)cc1 | 5.05%
33 | COC(=O)N1c2ccccc2C=Cc2ccccc21 | 12.3%
34 | COc1cc(Br)cc(CNc2ccc(F)c([N+](=O)[O-])c2)c1O | 11.3%
35 | CCCSc1nnc(-c2c[nH]c3ccccc23)n1CC | 3.09%
36 | CCOc1ccccc1Oc1ccc(C(F)(F)F)cn1 | 16%
37 | O=c1[nH]c(C2CCN(S(=O)(=O)c3ccc4c(c3)OCCO4)CC2)nc2c1nnn2Cc1c(F)cccc1Cl | 13.5%
38 | COc1ccc2nc(SCC(=O)Nc3ccccc3C)[nH]c2c1 | 3.24%
39 | O=C(NC(Cc1ccccc1)C(=O)O)/C(=C/c1ccc(Cl)cc1)NC(=O)c1ccccc1 (centres unmarked) | 13.4%
40 | Cc1cccc(-c2nnn3c2nc(NCCc2ccc(S(N)(=O)=O)cc2)c2ccccc23)c1 | 21.3%
41 | O=C(O)CC(NC(=O)OCc1ccccc1)c1ccc(Br)cc1 (centres unmarked) | 18%
42 | COc1ccccc1C(=O)CC(=O)c1ccccc1 | 17.4%
43 | O=S1(=O)C=C(SCc2ccc(Cl)c(Cl)c2)Nc2ccccc21 | -15.1%
44 | COc1ccc(CC(C)CC(=O)Nc2ccc(OC)cc2)cc1 (centres unmarked) | 11.1%
